The text below walks through data of patent US10501444B2, “Inhibitors of influenza virus replication, application methods and uses thereof” (SUNSHINE LAKE PHARMA CO., LTD., priority 2016, dated 2019).

SMILES strings stand for the structures.

The subject of series [1] is virus H1N1 A/Weiss/43. Description: microbe, parasite or virus in culture. The note with it: Influenza A virus, H1N1, 120 h; MDCK cells, CPE inhibition, 5 days, CCK-8; read-out: EC50 (nM), inhibitory activities against influenza virus (A/Weiss/43(H1N1)). The series is classed as cell-based.
For series [2] the following is noted: human, 1 μM, pH 7.4.
The nature of series [3]: in vivo. The note with it: SD, rat.
The nature of series [4]: in vitro. The note with it: human, microsomes, pH 7.4.
For series [5] the following is noted: SD, rat, in vivo, po, 5 mg/kg.
Series [6] in a line: Pharmacokinetic evaluation after intravenous or oral administration to SD rat. The note with it: in vivo.

For the compound `Cn1ncc2c(NC3C4CCC(CC4)C3C(=O)O)nc(-c3c[nH]c4c(F)cc(F)cc34)nc21` (racemic) [Example 31, (+/−)-trans-3-((6-(5,7-difluoro-1H-indol-3-yl)-1-methyl-1H-pyrazolo[3,4-d]pyrimidin-4-yl)amino)bicyclo[2.2.2]octane-2-carboxylic Acid], in series [1], the EC50 was determined as 17.1 nM.

In the case of `O=C(O)C1C2CCC(CC2)C1Nc1cc(-c2ccccc2)nc(-c2c[nH]c3c(F)cc(F)cc23)n1` (racemic) [Example 1, (+/−)-trans-3-((2-(5,7-difluoro-1H-indol-3-yl)-6-phenylpyrimidin-4-yl)amino)bicyclo[2.2.2]octane-2-carboxylic Acid], the “ER (extraction ratio)” value in series [2] turned out to be 0.1. In series [3] (iv, 1 mg/kg), the AUC(0-inf) – broadly, total exposure, with the tail of the curve extrapolated – turned out to be 2950 ng·h/mL; the exposure AUC(0-t) (in general, exposure summed from dosing to a finite time, without extrapolation to infinity) was found to be 2890 ng·h/mL; the highest level (Cmax) was 4650 ng/mL; the Tmax (in general, the time at which the peak concentration occurs) stood at 0.083 h. In series [3] (iv, 1 mg/kg), the Vd stood at 0.378 L/kg; the clearance stood at 5.74 mL/min/kg; the half-life (as a rule, the time needed for the level to fall by half in the phase considered) was 1.48 h. For the same compound, in series [3] (po, 5 mg/kg), the AUC(0-inf) came to 10600 ng·h/mL; the AUC(0-t) worked out at 10500 ng·h/mL; the Cmax – broadly, the highest concentration seen after dosing – is 2910 ng/mL; the Tmax was found to be 1.5 h. For the same compound, the half-life in series [3] (po, 5 mg/kg) was 1.37 h. In series [4], the CLhep predicted at 1 μM was 2 mL/min/kg and the half-life at 1 μM was 12.8 h. Also, in series [5], the F amounted to 72.1%. For the same compound, the EC50 in series [1] turned out to be 5.5 nM.

Turning to `O=C(O)C1C2CCC(CC2)C1Nc1nc(-c2c[nH]c3ncc(F)cc23)ncc1F` (racemic) [VX-787 (racemization)], the “ER (extraction ratio)” value in series [2] was determined as 0.3. Besides, in series [4], the CLhep predicted at 1 μM was 5.8 mL/min/kg and the half-life at 1 μM is 3.56 h. In series [6] (iv, 1 mg/kg), the AUC(0-inf) was found to be 1210 ng·h/mL, the AUC(0-t) came to 1180 ng·h/mL, the concentration peaked (Cmax) at 2840 ng/mL and the Tmax came to 0.083 h. In series [6] (iv, 1 mg/kg), this compound gave a Vd of 1.81 L/kg, a clearance of 13.8 mL/min/kg and a half-life of 5.72 h. Also, in series [6] (po, 5 mg/kg), the AUC(0-inf) was determined as 3530 ng·h/mL, the area under the curve AUC(0-t) is 3510 ng·h/mL, the Cmax was 1970 ng/mL and the Tmax stood at 0.333 h. In series [6] (po, 5 mg/kg), the half-life was 4.14 h.

As to `O=C(O)C1C2CCC(CC2)C1Nc1nc(-c2c[nH]c3c(F)cc(F)cc23)nc2c1ccn2CCF` (racemic) [Example 34, (+/−)-trans-3-((2-(5,7-difluoro-1H-indol-3-yl)-7-(2-fluoroethyl)-7H-pyrrolo[2,3-d]pyrimidin-4-yl)amino)bicyclo[2.2.2]octane-2-carboxylic Acid], in series [2], the “ER (extraction ratio)” value turned out to be 0.2. In series [3] (iv, 1 mg/kg), the AUC(0-inf) came to 3940 ng·h/mL, the AUC(0-t) turned out to be 3920 ng·h/mL, the Cmax worked out at 5400 ng/mL and the Tmax amounted to 0.083 h. Moreover, in series [3] (iv, 1 mg/kg), the Vd amounted to 0.515 L/kg, the clearance amounted to 4.23 mL/min/kg and the half-life was 1.35 h. Also, in series [3] (po, 5 mg/kg), the AUC(0-inf) was found to be 19700 ng·h/mL, the AUC(0-t) was 19600 ng·h/mL, the Cmax was determined as 8880 ng/mL and the Tmax turned out to be 0.5 h. This compound also gave a half-life in series [3] (po, 5 mg/kg) of 1.38 h. Moreover, in series [4], the CLhep predicted at 1 μM was 3.2 mL/min/kg and the half-life at 1 μM amounted to 7.75 h. This compound returned a F in series [5] of 100.2%. Also, the EC50 in series [1] was found to be 2.19 nM.

For the compound `O=C(O)C1C2CCC(CC2)C1Nc1nc(-c2c[nH]c3c(F)cc(F)cc23)nc2c(F)cccc12` (racemic) [Example 10, (+/−)-trans-3-((2-(5,7-difluoro-1H-indol-3-yl)-8-fluoroquinazolin-4-yl)amino)bicyclo[2.2.2]octane-2-carboxylic Acid], the EC50 in series [1] came out at 27.9 nM.

For `Cn1ccc2c(NC3C4CCC(CC4)C3C(=O)O)nc(-c3c[nH]c4c(F)cc(F)cc34)nc21` (racemic) [Example 9, (+/−)-trans-3-((2-(5,7-difluoro-1H-indol-3-yl)-7-methyl-7H-pyrrolo[2,3-d]pyrimidin-4-yl)amino)bicyclo[2.2.2]octane-2-carboxylic Acid], the EC50 in series [1] was 2.24 nM.

For the compound `O=C(O)C1C2CCC(CC2)C1Nc1cc(-c2ccco2)nc(-c2c[nH]c3c(F)cc(F)cc23)n1` (racemic) [Example 52, (+/−)-trans-3-((2-(5,7-difluoro-1H-indol-3-yl)-6-(furan-2-yl)pyrimidin-4-yl)amino)bicyclo[2.2.2]octane-2-carboxylic Acid], in series [3] (iv, 1 mg/kg), the AUC(0-inf) came to 5570 ng·h/mL, the AUC(0-t) is 5490 ng·h/mL, the Cmax was determined as 7420 ng/mL and the Tmax was found to be 0.083 h. In series [3] (iv, 1 mg/kg), this compound gave a Vd of 0.229 L/kg, a clearance of 3.02 mL/min/kg and a half-life of 1.38 h. Also, in series [3] (po, 5 mg/kg), the AUC(0-inf) worked out at 22700 ng·h/mL, the AUC(0-t) was 22600 ng·h/mL, the Cmax was 6430 ng/mL and the Tmax turned out to be 1.17 h. This compound showed a half-life in series [3] (po, 5 mg/kg) of 1.29 h. The compound also came in with a F in series [5] of 81.5%. Further, in series [1], the EC50 is 1.21 nM.

As to `N#Cc1ccc(-c2cc(NC3C4CCC(CC4)C3C(=O)O)nc(-c3c[nH]c4c(F)cc(F)cc34)n2)cc1` (racemic) [Example 6, (+/−)-trans-3-((6-(4-cyanophenyl)-2-(5,7-difluoro-1H-indol-3-yl)pyrimidin-4-yl)amino)bicyclo[2.2.2]octane-2-carboxylic Acid], the EC50 in series [1] is 6.01 nM.

As for `CC(C)n1ccc2c(NC3C4CCC(CC4)C3C(=O)O)nc(-c3c[nH]c4c(F)cc(F)cc34)nc21` (racemic) [Example 35, (+/−)-trans-3-((2-(5,7-difluoro-1H-indol-3-yl)-7-isopropyl-7H-pyrrolo[2,3-d]pyrimidin-4-yl)amino)bicyclo[2.2.2]octane-2-carboxylic Acid], the “ER (extraction ratio)” value in series [2] amounted to 0.2. In series [3] (iv, 1 mg/kg), the AUC(0-inf) was determined as 5080 ng·h/mL, the area under the curve AUC(0-t) was 5050 ng·h/mL, the highest concentration (Cmax) was 6080 ng/mL and the Tmax was determined as 0.083 h. In series [3] (iv, 1 mg/kg), this compound gave a Vd of 0.264 L/kg, a clearance of 3.3 mL/min/kg and a half-life of 1.23 h. In addition, in series [3] (po, 5 mg/kg), the AUC(0-inf) was 24000 ng·h/mL, the AUC(0-t) was 24000 ng·h/mL, the Cmax is 9920 ng/mL and the Tmax came out at 0.5 h. For the same compound, the half-life in series [3] (po, 5 mg/kg) is 1.21 h. For the same compound, in series [4], the CLhep predicted at 1 μM was 3.6 mL/min/kg and the half-life at 1 μM was 6.66 h. This compound gave a F in series [5] of 94.6%. The EC50 in series [1] amounted to 4.04 nM.

For `O=C(O)C1C2CCC(CC2)C1Nc1cc(C#Cc2ccccc2)nc(-c2c[nH]c3c(F)cc(F)cc23)n1` (racemic) [Example 24, (+/−)-trans-3-((2-(5,7-difluoro-1H-indol-3-yl)-6-(phenylethynyl)pyrimidin-4-yl)amino)bicyclo[2.2.2]octane-2-carboxylic Acid], in series [1], the EC50 came to 11 nM.

With `O=C(O)C1C2CCC(CC2)C1Nc1nc(-c2c[nH]c3c(F)cc(F)cc23)nc(-c2ccco2)c1F` (racemic) [Example 56, (+/−)-trans-3-((2-(5,7-difluoro-1H-indol-3-yl)-5-fluoro-6-(furan-2-yl)pyrimidin-4-yl)amino)bicyclo[2.2.2]octane-2-carboxylic Acid], the EC50 in series [1] came to 1.05 nM.
